Experimental data reported in PubChem BioAssay AID686971 (National Center for Advancing Translational Sciences (NCATS), 2013).
Among all 360,000 compounds or so, about 7,500 (2.1%) were called active. Inconclusive results, whose numbers are uncertain, are shown with a selection of clear calls. Calls come from the whole dose curve; as a rule, active = well fitted cell-killing curve with a large enough effect; inconclusive = small, poorly fitted or top-dose-only effect, or effect the other way, or another doubt; inactive = no such curve, though single readings can be large or run the other way. No potency is given beside an inconclusive call; the fits are too rough.

Assay: qHTS for induction of synthetic lethality in tumor cells producing 2HG: qHTS for the HT-1080-IDH1KD cell line
Settings: HT-1080 IDH1 knockdown viability, ATP luminescence, 48 h; series mostly up to 46.1 µM
How it was run: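 After a 2 h attachment period, IDH1KD HT-1080 cells took pin-transferred compound for 48 h at 37 °C; ATP-based luminescence after 10 min room-temperature reagent incubation reported viability.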
Potency is the fitted concentration of half-maximal effect; tags give direction and shape of the fitted curve.

Structure (SMILES)	Potency
CN(C)N=Nc1ccc(S(=O)(=O)/N=C(\O)c2ccccc2)cc1	inactive
O=c1c2cn[nH]c2nc(SCc2ccc3c(c2)OCCO3)n1-c1ccccc1	active: 20.6 µM
COc1ccc(/C=C/c2nc3ccccc3n2C)cc1	active: 4.61 µM
Cc1ccc(OCc2nc(C#N)c(NCCCn3ccnc3)o2)cc1	inconclusive [cytotoxic, single point]
CC(Sc1nnnn1-c1cccc(F)c1)C(=O)NC1CCCC1 (stereo not given)	inactive
CC(C)C[C@@H]1CN(CCCC[C@H]2CNC(=O)C(=O)N2CCC2CCCCC2)C(=O)C(=O)N1CCC1CCCCC1	inactive
OC(c1cc(C(F)(F)F)nc2c(C(F)(F)F)cccc12)C1CCCCN1 (stereo not given)	active: 10.3 µM
Cc1ccc(NC(=O)Nc2nnc(Cc3ccc(F)cc3)s2)cc1	inconclusive [cytotoxic, full curve, poor fit]
COc1cccc(N=Nc2c(N)[nH][nH]c2=O)c1	inactive
O=C(Cc1ccc(Cl)cc1)Nc1ccc(N2CCN(C(=O)c3ccco3)CC2)c(Cl)c1	inconclusive [cytotoxic, single point]
N#Cc1ccc(CSc2nnc(-c3ccncc3)n2CCc2ccccc2)cc1	inconclusive [cytotoxic, partial curve]
CN(CCOc1ccc(Cl)cc1)C(=O)c1cccc(S(=O)(=O)N2CCN(Cc3ccccc3)CC2)c1	inconclusive [cytotoxic, partial curve, poor fit]
O=c1[nH]c(=S)[nH]c2c1C(c1cccc(C(F)(F)F)c1)OC(CCc1ccccc1)C2 (stereo not given)	inconclusive [cytotoxic, partial curve]
CCOc1ccc(NC(=O)CN(c2ccc([N+](=O)[O-])cc2)S(=O)(=O)c2ccccc2)cc1	active: 8.2 µM
COc1cccc(CNC(=O)c2nnn(CC(=O)Nc3cc(Cl)ccc3C)c2N)c1	inconclusive [cytotoxic, full curve, poor fit]
CNC(=O)COc1coc(CN2CCN(c3ccccc3OC)CC2)cc1=O	inactive
CC(C)(CNC(=S)NCCc1ccccc1)CNC(=S)NCCc1ccccc1	inconclusive [cytotoxic, single point]
CCOC(=O)c1c(NC(=O)COC(=O)c2ccc(S(=O)(=O)C(F)F)cc2)sc(C(=O)N(C)C)c1C	inactive
c1ccc(C[n+]2cccc3c4ccccc4ccc32)cc1	inconclusive [cytotoxic, full curve]
COc1ccc(NC(=O)c2c(NC(=O)CNCc3ccco3)sc3c2CCC3)cc1	inactive
